Where “and” joins values, the source holds several entries; their conditions need not be identical. Identical values can stand only once. Inconclusive means that the source gave no clear call. Such entries were picked first, then a sample of the others. Potencies beside an inconclusive call are fits to weak or partial responses and may not hold up. Calls of active or inactive are those of the source. Calls come from the whole dose curve; as a rule, active = well fitted curve in the direction sought with a large enough effect; inconclusive = small, poorly fitted or top-dose-only effect, or another doubt; inactive = no such curve, though single readings can be large; an effect the other way counts as inactive or inconclusive.
How the values were obtained:
[1] = qHTS of pediatric cancer cell lines to identify multiple opportunities for drug repurposing: Primary screen for Saos-2 cells (AID 1347097); conditions: Saos-2 viability, CellTiter-Glo ATP luminescence, 48 h; activity change, negative = cytotoxic: at 46 µM (top of the series); note: nearly all actives have a fitted effect of over 40% in size
How it was run: (§1)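 Cells seeded at 500-1,000 cells/well in growth media, rested 5 hours at 37 degrees C, 5% CO2, then dosed; MIPE compounds at 11-point (from 0.78 nM) and NPC at 8-point (from 0.59 nM) final concentrations. Viability by CellTiter-Glo luminescence after 48 hours.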

[2] = qHTS of pediatric cancer cell lines to identify multiple opportunities for drug repurposing: Primary screen for SK-N-SH cells (AID 1347098); conditions: SK-N-SH viability, CellTiter-Glo luminescence, 48 h; activity change, negative = cytotoxic: at 57 µM (top of the series); note: nearly all actives have a fitted effect of over 65% in size;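 for activity change, negative = cytotoxic: DMSO served as neutral control and bortezomib at 2.3 µM as positive control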
How it was run: (§2)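 Cells (500-1,000/well) rested 5 h, then received compounds for 48 h; metabolically active cells were measured by CellTiter-Glo luminescence. Final concentrations spanned up to 46 µM (MIPE, 11-point) or 0.59 nM-46 µM (NPC, 8-point) in primary screens, 11-point in follow-ups.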

[3] = qHTS of pediatric cancer cell lines to identify multiple opportunities for drug repurposing: Primary screen for NB1643 cells (AID 1347099); note: nearly all actives have a fitted effect of over 50% in size
How it was run: as §1

[4] = qHTS of pediatric cancer cell lines to identify multiple opportunities for drug repurposing: Primary screen for LAN-5 cells (AID 1347100); conditions: LAN-5 neuroblastoma viability, CellTiter-Glo luminescence, 48 h; activity change, negative = cytotoxic: at 46 µM (top of the series)
How it was run: (§3)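 Cells (500-1,000/well) in growth media were settled 5 h at 37 degrees C, then given compounds for 48 h. Viability was read as CellTiter-Glo luminescence. Primary runs used MIPE at 11 points (0.78 nM-46 µM) and NPC at 8 points (0.59 nM-46 µM); follow-ups used 11 points.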

[5] = qHTS of pediatric cancer cell lines to identify multiple opportunities for drug repurposing: Primary screen for BT-12 cells (AID 1347101); note: nearly all actives have a fitted effect of over 25% in size
How it was run: as §2

[6] = qHTS of pediatric cancer cell lines to identify multiple opportunities for drug repurposing: Primary screen for RD cells (AID 1347104); note: nearly all actives have a fitted effect of over 55% in size
How it was run: as §1

[7] = qHTS of pediatric cancer cell lines to identify multiple opportunities for drug repurposing: Primary screen for OHS-50 cells (AID 1347103); note: nearly all actives have a fitted effect of over 40% in size
How it was run: as §2

[8] = qHTS of pediatric cancer cell lines to identify multiple opportunities for drug repurposing: Primary screen for Rh18 cells (AID 1347102); note: nearly all actives have a fitted effect of over 65% in size
How it was run: as §3
Potency is the fitted concentration of half-maximal effect; tags give direction and shape of the fitted curve.

SMILES | Potency [1] | Potency [2] | Potency [3] | Potency [4] | Potency [5] | Potency [6] | Potency [7] | Potency [8]
CCCCCCCCCCCC1=C(O)C(=O)C=C(O)C1=O | active: 0.0372 µM | inconclusive: 0.961 µM [cytotoxic, full curve] | inconclusive: 0.059 µM [cytotoxic, partial curve, poor fit] | – | – | – | – | –
O=C(Nc1ccccc1Br)N[C@@H]1CCN(c2ccc(C(F)(F)F)cn2)C1 | active: 18.7 µM | inconclusive: 24.1 µM [cytotoxic, partial curve] | inconclusive: 29.6 µM [cytotoxic, single point] | inconclusive: 29.6 µM [cytotoxic, partial curve, poor fit] | inconclusive: 24.3 µM [cytotoxic, partial curve] | inconclusive: 29.6 µM [cytotoxic, partial curve, poor fit] | – | –
C[C@]12CCC3c4ccc(O)cc4CCC3C1CCC2=O (stereo partly drawn) | inconclusive: 4.18 µM [cytotoxic, partial curve, poor fit] | inactive | inconclusive: 3.32 µM [cytotoxic, partial curve, poor fit] | – | – | – | inconclusive: 7.69 µM [cytotoxic, partial curve] | –
Clc1ccc(C(Cn2ccnc2)OCc2c(Cl)cccc2Cl)c(Cl)c1 (stereo not drawn) | inconclusive: 15 µM [cytotoxic, single point] and inconclusive: 52.6 µM [cytotoxic, single point] | inconclusive: 27.3 µM [cytotoxic, partial curve, poor fit] | inconclusive: 23.7 µM [cytotoxic, single point] and inconclusive: 29.6 µM [cytotoxic, single point] | inconclusive: 29.9 µM [cytotoxic, single point] and inconclusive: 37.2 µM [cytotoxic, single point] | inconclusive: 27.6 µM [cytotoxic, single point] and inconclusive: 43.2 µM [cytotoxic, single point] | inconclusive: 23.7 µM [cytotoxic, single point] and inconclusive: 33.2 µM [cytotoxic, partial curve, poor fit] | – | –
CC(=O)N1CCN(c2ccc(OCc3nn(C)c(C)c3-c3cccc4c(CCCOc5cc(C)c(Cl)c(C)c5)c(C(=O)O)n(Cc5cccnc5)c34)cc2)CC1 | active: 18.7 µM | inconclusive: 42.9 µM [cytotoxic, single point] | active: 18.7 µM | active: 20.9 µM | inconclusive: 34.3 µM [cytotoxic, single point] | active: 18.7 µM | inconclusive: 27.3 µM [cytotoxic, partial curve] | inconclusive: 26.4 µM [cytotoxic, single point]
CCN(C(=O)c1c(O)c2c(Cl)cccc2n(C)c1=O)c1ccccc1 | inconclusive: 6.62 µM [cytotoxic, full curve] | inactive | – | – | inconclusive: 21.7 µM [cytotoxic, partial curve] | – | – | –
CN1CCN(CCCN2c3ccccc3Sc3ccc(Cl)cc32)CC1 | active: 235 nM and inconclusive: 26.6 µM [cytotoxic, single point] | inconclusive: 38.3 µM [cytotoxic, single point] and active: 24.4 µM | – | inconclusive: 33.5 µM [cytotoxic, single point] | active: 6.11 µM and inconclusive: 11 µM [cytotoxic, partial curve] | active: 9.35 µM and active: 26.6 µM | inconclusive: 24.6 µM [cytotoxic, partial curve] | inconclusive: 16.6 µM [cytotoxic, partial curve] and inconclusive: 16.8 µM [cytotoxic, partial curve]
O=C(O)c1cn(-c2ccc(F)cc2)c2cc(N3CCNCC3)c(F)cc2c1=O | inactive | – | inconclusive: 4.18 µM [cytotoxic, partial curve, poor fit] | – | inconclusive: 9.68 µM [cytotoxic, partial curve, poor fit] | – | – | –
CN1CCN(c2cccc(Nc3nc4c(-c5ccc(S(C)(=O)=O)cc5)cccn4n3)c2)CC1 | active: 18.7 µM | – | inconclusive: 9.35 µM [cytotoxic, partial curve] | active: 13.2 µM | inconclusive: 24.3 µM [cytotoxic, partial curve] | inconclusive: 20.9 µM [cytotoxic, partial curve] | – | –
Cn1c2cc(S(C)=O)sc2c2cnn(Cc3cccc(N)c3)c(=O)c21 (stereo not drawn) | inconclusive: 20.9 µM [cytotoxic, partial curve] | inconclusive: 42.9 µM [cytotoxic, single point] | – | – | – | – | inactive | –

Reference: PubChem BioAssay (NCATS)
